Over roughly 110,000 compounds, “z-score” has its median near -0.1; the highest 2% begin near 2. The list shows a part of the results. Calls of active or inactive are those of the source.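 How the source made its calls: active means z-score in the third read window above 3 or below -3; inactive means the rest.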

In the test the target is Metabotropic glutamate receptor 8 (Rattus norvegicus) (UniProt P70579). Kind of test: rat mGluR8 modulators via GIRK flux, primary screen, cell-based, thallium flux, HTS (AID 488969). The conditions noted are these: HEK293 rat mGluR8, GIRK (G protein-gated inwardly rectifying potassium channel) thallium flux, FluoZin2; at 10 µM; stronger effect = higher value; submaximal glutamate (EC20) added with thallium.
UniProt P70579, sequence (P70579 whole entry, looked up): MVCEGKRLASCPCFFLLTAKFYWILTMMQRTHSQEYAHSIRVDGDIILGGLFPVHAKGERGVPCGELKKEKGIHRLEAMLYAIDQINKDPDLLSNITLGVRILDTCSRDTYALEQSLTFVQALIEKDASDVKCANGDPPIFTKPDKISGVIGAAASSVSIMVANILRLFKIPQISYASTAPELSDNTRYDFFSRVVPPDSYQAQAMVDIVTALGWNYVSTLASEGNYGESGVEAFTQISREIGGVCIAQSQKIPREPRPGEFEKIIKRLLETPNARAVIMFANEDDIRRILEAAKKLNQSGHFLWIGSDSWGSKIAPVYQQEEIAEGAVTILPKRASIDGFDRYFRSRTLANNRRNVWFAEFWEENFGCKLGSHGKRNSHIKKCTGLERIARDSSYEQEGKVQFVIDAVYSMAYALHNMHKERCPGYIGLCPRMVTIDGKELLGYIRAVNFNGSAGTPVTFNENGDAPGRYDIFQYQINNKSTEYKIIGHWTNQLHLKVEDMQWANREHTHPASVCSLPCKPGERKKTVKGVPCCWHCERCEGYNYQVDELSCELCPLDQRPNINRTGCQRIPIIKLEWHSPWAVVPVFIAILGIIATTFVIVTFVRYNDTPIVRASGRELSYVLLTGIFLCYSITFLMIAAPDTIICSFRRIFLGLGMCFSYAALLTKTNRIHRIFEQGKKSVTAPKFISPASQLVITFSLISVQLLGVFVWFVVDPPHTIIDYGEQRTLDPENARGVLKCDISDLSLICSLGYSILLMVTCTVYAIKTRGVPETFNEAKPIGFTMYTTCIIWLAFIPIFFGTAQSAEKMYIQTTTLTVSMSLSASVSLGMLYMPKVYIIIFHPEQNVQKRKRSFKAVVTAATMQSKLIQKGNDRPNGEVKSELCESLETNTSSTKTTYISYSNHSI
Compound `O=C(Cn1cnc2ccccc21)NCCCN1CCOCC1` showed a z-score of -0.019.
The compound `COc1ccc2c(c1)c(=O)oc1cc3occ(C(C)(C)C)c3cc12` displayed a z-score of -0.319.
Consider `S=C1N(c2ccccc2)C(c2ccccc2)N2CCCN12` (centres undefined), for which the z-score is -0.167.
As for `O=C(N/N=C/c1c[nH]c2ccccc12)c1sc2ccccc2c1Cl`, the z-score was -0.0651.
The figure for `CCOC(=O)N1CCC(NC(=O)C2CCCN(S(C)(=O)=O)C2)CC1` (centres undefined) is 0.932; for `CC(C)CNS(=O)(=O)c1ccc(CCC(=O)Nc2cc(Cl)ccc2Oc2ccccc2)cc1` it is 0.192.
The figure for `COc1cc(CNn2nnnc2N)ccc1OCc1c(Cl)cccc1Cl` is -0.238; for `COc1ccc(C)cc1S(=O)(=O)N1CCCC(C(=O)NCC2CCCO2)C1` (centres undefined) it is -0.15.
`O=C(CCN1C(=O)/C(=C/c2ccccc2)SC1=S)NNC(=O)c1cccnc1` yielded a z-score of -0.155.
As for `COc1cc(/C=N\NC(=O)Cn2nnc3ccccc32)cc(OC)c1OC`, the z-score was -0.0696.
The figure for `C=CCn1c(SCC(=O)N2CCc3ccccc3C2)nc2sc(CC)cc2c1=O` is -0.501.
Compound `O=C(Cn1c(C(=O)NCC2CCCO2)cc2sccc21)c1ccccc1` (centres undefined) displayed a z-score of -0.207.
Regarding `Nc1nc(-c2ccc([N+](=O)[O-])cc2)cs1`, the z-score was -0.0935.
`Cc1cc(OCC(=O)NC2CCCCC2)ccc1Cl` showed a z-score of -0.17.
The figure for `COCCSc1ccccc1C(=O)NCCCn1ccnc1` is 0.00688; for `CCOC(=O)CSc1nnc(NC(=O)c2cc([N+](=O)[O-])cc([N+](=O)[O-])c2)s1` it is -0.581; for `CCOC(=O)C1=C(C)OC(N)=C(C#N)C1c1cc2c(cc1Br)OCO2` (centres undefined) it is -0.389.
The figure for `CN1CCc2c(sc(/N=C/c3ccco3)c2C(N)=O)C1` is -0.22.
For the compound `COC(=O)c1ccccc1NC(=O)Nc1ccc2c(c1)OCO2`, the z-score is 0.207.
`CCOc1ccc(NC(=O)CCC(=O)N/N=C/c2ccc([N+](=O)[O-])s2)cc1` had a z-score of 2.1.
The figure for `CCOc1ccc(NC(=O)N(C2CCCCCC2)C2CCN(C(C)=O)CC2)cc1` is 0.205; for `O=C1OCCC1Sc1nc(-c2ccccc2)cs1` (centres undefined) it is -1.82; for `CN(C)c1ccc(/C=N/N(Cc2ccccc2)c2ccccc2)cc1` it is 0.172.
As for `CCOC(=O)C1=C(C)N(C)C(C)=C(C(=O)OCC)C1c1ccccc1`, the z-score is -0.244.
The figure for `Cc1[nH]nc2c1C1(C(=O)N(Cc3ccc(Cl)cc3)c3ccccc31)C(C#N)=C(N)O2` (centres undefined) is -0.00904; for `CCC(C)N(NC(C)=O)c1nc(Cl)nc(NC(C)C)n1` (centres undefined) it is -0.107.
The figure for `CC1CCCC(NC(=S)NC(=O)c2cncc(Br)c2)C1C` (centres undefined) is active: 6.76; for `Cn1c(NC(=O)c2cc(-c3ccc4c(c3)OCO4)nc3ccccc23)cc(=O)n(C)c1=O` it is -0.115.
With `COc1ccc(-c2csc(/C=C/c3ccc4c(c3)OCO4)n2)cc1OC`, the z-score is -0.227.
Regarding `CCOC(=O)C(C(=O)NCCCN1CCOCC1)C1CCCCC1` (centres undefined), the z-score was -0.265.
The figure for `Cc1cc(C)c(S(C)(=O)=O)c(S(=O)(=O)c2ccc(Cl)cc2)n1` is -0.0161; for `CC(C)Cc1cc(-c2ccco2)c(C#N)c(N)n1` it is 0.111.
In the case of `COc1ccc(N=C2C(=O)N3c4c(cccc42)C(C)=CC3(C)C)cc1`, the z-score was -0.0537.
With `CC(C)Cc1nnc(NC(=O)CSc2ncn[nH]2)s1`, the z-score was -1.31.
The figure for `Cc1ccccc1C(=O)Oc1ccccc1N1C(=O)C2CC=CCC2C1=O` (centres undefined) is -0.132; for `O=C(Cc1ccc([N+](=O)[O-])cc1)Nc1nnc(C2CC2)s1` it is 1.17; for `CCOc1ccc2cc(S(=O)(=O)n3ccnc3C)ccc2c1` it is 0.917.
`CCOC(=O)c1c(NC(=O)c2cccs2)sc2c1CCCC2` registered a z-score of 1.02.
The figure for `CCn1c(=O)c(=O)n(CC)c2cc(S(=O)(=O)N3CCc4ccccc43)ccc21` is -0.766; for `Cc1ccc(C(=O)N2CC(C)OC(C)C2)c(Cl)c1` (centres undefined) it is -0.0463.
The figure for `COc1cc(NC(=O)COC(=O)c2ccc(S(=O)(=O)N3CC(C)CC(C)C3)cc2)c(C)cc1[N+](=O)[O-]` (centres undefined) is -0.41; for `CCN(C(=O)CN1CCN(S(=O)(=O)c2cc(Cl)ccc2Cl)CC1)c1c(N)n(Cc2ccccc2)c(=O)[nH]c1=O` it is -0.194.
The figure for `CCOC(=O)C1CCCN(C/C=C/c2ccccc2[N+](=O)[O-])C1` (centres undefined) is -0.267.
Regarding `COc1ccc(C2=CC(=O)OC3(CCCCC3)O2)cc1`, the z-score is -2.37.
For the compound `Cc1cc2cc(CNC(=O)c3ccc(S(=O)(=O)N4CCCCC4)cc3)ccc2[nH]1`, the z-score amounted to 0.254.
Compound `CCn1c(SCC(=O)c2ccc3ccccc3c2)nnc1-c1ccco1` came in with a z-score of -0.531.
`CCOC(=O)N1CCN(CC(O)COCc2ccccc2)CC1` (centres undefined) registered a z-score of -0.292.
The compound `Cc1cc(C=O)c2c(c1)C=CC1(Oc3ccccc3C(=O)N1C)O2` (centres undefined) registered a z-score of -2.55.
Compound `CCCOc1ccc(C2c3c(oc4ccccc4c3=O)C(=O)N2CCN(CC)CC)cc1OC` (centres undefined) displayed a z-score of 0.615.
In the case of `c1ccc(CCNc2ncnc3c2nnn3Cc2ccccc2)cc1`, the z-score is -0.118.
The figure for `COCCNC(=O)c1ccccc1NC(=O)c1ccccc1N(C)S(C)(=O)=O` is -0.163; for `CCN(CC)C(=O)c1c[nH]c2ccc(S(=O)(=O)Nc3cc(C)cc(C)c3)cc2c1=O` it is -0.38.
For `CCCCCOC(=O)CSc1nc2c(c(=O)[nH]c(=O)n2C)n1Cc1ccc(Cl)cc1`, the z-score worked out at 0.0777.
The figure for `Cc1ccc(N(CC(=O)NC2CCC(C)CC2)S(=O)(=O)c2cccnc2)cc1` (centres undefined) is -0.173; for `CCCCOc1ccc(NC(=O)c2cc(F)c(F)cc2Cl)cc1` it is -0.21.
`N#Cc1nc(-c2ccccc2)oc1NCC1CCCO1` (centres undefined): the z-score was -0.084.
With `O=c1c2sccc2nc(SCc2cc(=O)n3cc(Cl)ccc3n2)n1-c1ccc(F)cc1`, the z-score is -1.07.
`O=C(Nc1ccc(O)c(-c2nc3ccccc3o2)c1)C1(c2ccc(Cl)cc2)CCCC1`: the z-score is -0.181.
Compound `CCNc1nc(NCC)nc(N/N=C/c2ccc([N+](=O)[O-])o2)n1` returned a z-score of -0.153.
As to `Fc1ccc(Nc2ncnc3sc4c(c23)CCC4)cc1`, the z-score was 0.00391.
Compound `Cc1ccc(C)c(C(=O)CSc2nnnn2C(C)C)c1` returned a z-score of -0.175.
Turning to `COc1cc(NC(=O)c2cc3nc(C4CC4)cc(C(F)(F)F)n3n2)c(OC)cc1Cl`, the z-score is -0.0956.
In the case of `Cc1ccccc1-c1nc(CN2CCC(C(=O)NCCCN3CC(C)CC(C)C3)CC2)c(C)o1` (centres undefined), the z-score was 2.43.
The compound `Cc1ccc2c(C)nc(NC3=NCN(C(C)C)CN3)nc2c1` yielded a z-score of 0.123.
Compound `O=C(Nc1nc(-c2cccs2)c(-c2cccs2)s1)C1CCCC1` yielded a z-score of -0.821.
In turn, `CCCNC(=O)c1ccccc1NC(=O)CSCc1ccc(OC)cc1` gave a z-score of -0.46.
As to `CCOCCCN1C(=O)CN(C2CCCCC2)C(=O)C1c1ccc(OC)c(OC)c1` (centres undefined), the z-score was -0.329.
Turning to `CCN1C(=O)CC(N2CCN(c3ccc(Cl)cc3)CC2)C1=O` (centres undefined), the z-score turned out to be 0.941.
The compound `CC(C(=O)Nc1cccc([N+](=O)[O-])c1)N1CCN(C/C=C/c2ccccc2)CC1` (centres undefined) gave a z-score of 0.163.
As for `Cc1ccc(Cl)cc1N1CCN(Cc2nc3c(c(=O)[nH]c(=O)n3C)n2CCc2ccccc2)CC1`, the z-score came out at 0.0775.
In the case of `Cc1ccc(C2=N/C(=C/N3CCOCC3)C(=O)O2)cc1`, the z-score is -0.011.
`CC(Sc1nc(-c2ccccc2)cc(C(F)(F)F)n1)C(=O)N1CCC(C(N)=O)CC1` (centres undefined) returned a z-score of -0.247.
On to `Cc1noc(C)c1S(=O)(=O)N1CCCC(C(=O)Nc2cccnc2)C1` (centres undefined), for which the z-score is -0.145.
In turn, `C=CCn1c(=O)c2ccc(C(=O)NCc3ccccc3)cc2n(Cc2ccc(Cl)cc2)c1=O` registered a z-score of 0.157.
Regarding `COc1ccc(CC2(C)OC(c3ccccc3)=NN2C(C)=O)cc1` (centres undefined), the z-score is -0.359.
The figure for `COc1ccc(OCC(=O)NCc2cccnc2)cc1` is 0.268.
On to `Cc1ccc(OCc2nnc(NC(=O)OCC(C)C)s2)c(C)c1`, for which the z-score is -0.128.
`O=C(O)c1cccc(CSc2nnc(Cc3ccccc3)o2)c1` displayed a z-score of -0.337.
The figure for `O=[N+]([O-])c1cc(-c2nc(-c3ccncc3)no2)cc([N+](=O)[O-])c1` is 0.0493.
Turning to `Cc1csc(NC(=O)Cn2cnnn2)n1`, the z-score turned out to be 1.29.
The figure for `Cc1ccc(C(=O)N/C(=C/c2cccnc2)C(=O)NCc2ccco2)cc1` is -0.102.
Turning to `Cc1cc(C)n(-c2cc(N3CCOCC3)nc(-c3ccccc3)n2)n1`, the z-score was -0.147.
In turn, `CCOc1ccc(N(CC(=O)NCC2CCCO2)C(=O)CCC(=O)Nc2ccccn2)cc1` (centres undefined) displayed a z-score of -1.08.
The figure for `CCOC(=O)Nc1ccc2c(C)cc(=O)oc2c1` is -0.0731.
Compound `CCCCCn1c(-c2ccco2)nc2nc3ccccc3nc21` displayed a z-score of -0.463.
In the case of `CCCCNC(=O)c1ccc2c(=O)n(CCCOCC)c(=S)[nH]c2c1`, the z-score came out at 0.234.
`Cc1onc(-c2ccccc2Cl)c1C(=O)NCC(=O)O`: the z-score was -0.267.
The compound `Cc1ccc(C)c(S(=O)(=O)NCCOc2nc(NC(C)C)nc(NC(C)C)n2)c1` showed a z-score of 0.708.
The compound `COc1ccccc1-n1c(SC)nc(O)cc1=O` came in with a z-score of -0.633.
Turning to `NC(=S)c1cc2ccc(O)cc2oc1=O`, the z-score was -0.0665.
As for `CCOC(=O)c1cnc2c(C#N)c(C)nn2c1C`, the z-score was determined as 0.0622.
The compound `Cc1ccc(OCc2nnnn2-c2ccccc2)cc1` registered a z-score of -0.799.
The compound `O=C(Nc1cccc(Cl)c1N1CCCC1)c1cccc(-c2cc3ccccc3oc2=O)c1` returned a z-score of -0.0492.
Turning to `Cc1ccc2c(c1)[C@@H](O)C[C@@H](C)N2N=O`, the z-score was -0.286.
As for `COc1ccc(C)cc1S(=O)(=O)N(CC(=O)O)c1ccc(F)cc1`, the z-score turned out to be 0.306.
`CCOC(=O)C1=C(CN2CCOCC2)NC(=O)NC1c1cc(C)ccc1C` (centres undefined) registered a z-score of 1.13.
Consider `O=C(CNC(=S)NC(=O)c1ccco1)c1ccccc1`, for which the z-score is active: 6.42.
The figure for `O=C(NCc1ccco1)c1cc2nc(-c3cccs3)cc(C(F)(F)F)n2n1` is -0.0686; for `COc1ccc(OC)c(NC(=O)Nc2ccccc2C)c1` it is -0.89; for `CN(C(=O)c1ccncc1)C1CCS(=O)(=O)C1` (centres undefined) it is 0.517.
On to `O=C(CN1CCN(C(=O)c2cccc(F)c2)CC1)Nc1ccccc1F`, for which the z-score was found to be 1.22.
In turn, `Cc1ccc(NC(=O)/C(Cl)=C/c2ccccc2)cc1C` yielded a z-score of 0.0751.
The figure for `COC(=O)c1ccc(C2c3c(n[nH]c3C)C(=O)N2c2ccc(C)cc2)cc1` (centres undefined) is -2.04; for `CCOc1ccc2ccccc2c1/C=N/NC(=O)CC1(C)OCCCO1` it is -0.172.
`O=[N+]([O-])c1ccc(/C=N/Nc2nc(N3CCCC3)nc(N3CCCC3)n2)o1` registered a z-score of -0.62.
The figure for `C=C(C)COc1ccc(-c2ncncc2Oc2ccc(OC)cc2)c(O)c1` is -0.27.
The figure for `O=C(c1cnccn1)N(Cc1ccco1)C1(C(=O)NC2CCCCC2)CCCCC1` is -1.51; for `Cc1noc(C)c1C(=O)NC(C)c1ccc2c(c1)OCO2` (centres undefined) it is 0.275.
`Cc1ccc(/C(N)=N/OC(=O)COc2ccccc2Cl)cc1` registered a z-score of -0.637.
